Laboratory results taken from paper PMC11079024, “Identification of a family of species-selective complex I inhibitors as potential anthelmintics” (Nature Communications, 2024).

Tested on: L1 wild-type C. elegans (N2)
Assay: microbe, parasite or virus in culture
Conditions: Caenorhabditis elegans; for viability at 500 µM: read-out: C. elegans Wild type development/viability, Dose 500 µM; for viability at 1000 µM: read-out: C. elegans Wild type development/viability, Dose 1000 µM
[1] = read-out: C. elegans Wt viability LC50
[2] = read-out: C. elegans Wt viability log10 LC50 (converted)
[3] = read-out: C. elegans (Wild type) Development & Viability Assay LC50
[4] = read-out: C. elegans Wild type development/viability, Dose 1 µM
[5] = read-out: C. elegans Wild type development/viability, Dose 2 µM
[6] = read-out: C. elegans Wild type development/viability, Dose 3.9 µM
[7] = read-out: C. elegans Wild type development/viability, Dose 15.6 µM
[8] = read-out: C. elegans Wild type development/viability, Dose 31.3 µM
[9] = read-out: C. elegans Wild type development/viability, Dose 62.5 µM
[10] = read-out: C. elegans Wild type development/viability, Dose 125 µM
[11] = read-out: C. elegans Wild type development/viability, Dose 250 µM
[12] = read-out: C. elegans Wild type development/viability

| Structure (SMILES) | LC50 [2] | LC50 [3] | viability at 1 µM [4] | viability at 2 µM [5] | viability at 3.9 µM [6] | viability at 15.6 µM [7] | viability at 31.3 µM [8] | viability at 62.5 µM [9] | viability at 125 µM [10] | viability at 250 µM [11] | viability at 500 µM | viability at 1000 µM | other results |
| --- | --- | --- | --- | --- | --- | --- | --- | --- | --- | --- | --- | --- | --- |
| CCCSc1ccc2nc(NC(=O)OC)[nH]c2c1 [Albendazole] | 52.6 µM |  |  |  |  |  |  |  |  |  |  |  | LC50 [1]: 52.6 µM |
| Cc1nc2ccccc2n1Cc1ccc(C(C)(C)C)cc1 [Compound 5521938] | 753 µM | 754 µM |  |  |  |  |  |  |  |  |  |  |  |
| Brc1ccc(Cn2cnc3ccccc32)cc1 [Compound 5542661] | 44.7 µM | 44.6 µM |  |  |  |  |  |  |  |  |  |  |  |
| Cc1nc2ccccc2n1CCOc1ccccc1 [Compound 5550112] | > 500 µM | > 1000 µM | 98.4% | 99.5% | 97.2% | 100% | 94.7% | 97.5% | 100% | 90.5% | 100% | 93.3% | LC50 [1]: > 500 µM |
| Cc1nc2ccccc2n1CCOc1ccccc1Cl [Compound 5561642] | 545 µM | 544 µM | 99.4% | 95.3% | 99.7% | 97.1% | 92.3% | 100% | 100% | 79.9% | 30% | 46.4% |  |
| Cc1nc2ccccc2n1Cc1ccc(Br)cc1 [Compound 5567167] | 18.9 µM | 18.9 µM |  |  |  |  |  |  |  |  |  |  |  |
| Clc1ccc(Cn2cnc3ccccc32)cc1Cl [Compound 5571325] | 66.5 µM | 66.5 µM | 98.5% | 100% | 94.1% | 100% | 92.2% | 37.5% | 2.1% |  |  |  |  |
| Cc1ccc(Cn2c(C)nc3ccccc32)cc1 [Compound 5651984] | 119 µM | 119 µM |  |  |  |  |  |  |  |  |  |  |  |
| Nc1nc2ccccc2n1Cc1ccc(Cl)cc1 [Compound 5652765] | 88.1 µM | 88.2 µM | 100% | 99.7% | 98.8% | 99.4% | 81.3% | 85.7% | 16.2% | 5.6% | 5.1% |  |  |
| Cc1nc2ccccc2n1Cc1ccc(Cl)c(Cl)c1 [Compound 5655567] | 82.6 µM | 82.7 µM | 95.1% | 94.9% | 94.2% | 100% | 100% | 91.2% | 3% | 9.3% |  |  |  |
| c1ccc2[nH]c(CSc3nc4ccccc4o3)nc2c1 [Compound 5668941] | 144 µM | 144 µM |  |  |  |  |  |  |  |  |  |  |  |
| Cc1ccc(OCCn2cnc3ccccc32)cc1 [Compound 5671538] | > 500 µM | > 1000 µM |  |  |  | 100% | 100% | 100% | 100% | 100% | 100% | 100% | LC50 [1]: > 500 µM |
| Nc1nc2ccccc2n1CCOc1ccc(Br)cc1 [Compound 5842535] | 39.7 µM | 39.7 µM | 98.7% | 100% | 100% | 100% | 84.1% | 3.9% | 9.2% |  |  |  |  |
| Cc1ccc(C(C)C)c(OCC(O)Cn2cnc3ccccc32)c1 (stereo not drawn) [Compound 6093301] | 366 µM | 365 µM | 100% | 99.3% | 99.4% | 100% | 100% | 100% |  | 94.7% | 48.5% | 41.9% | viability at 125 µM [12]: 97.2% |
| Cc1cccc(OCCn2c(C)nc3ccccc32)c1 [Compound 6285199] | > 500 µM | > 1000 µM |  |  |  |  |  |  | 100% |  |  |  | viability at 1 µM [12]: 99.9%; viability at 2 µM [12]: 91.6%; viability at 3.9 µM [12]: 97.6%; viability at 15.6 µM [12]: 95.5%; viability at 31.3 µM [12]: 93.8%; viability at 62.5 µM [12]: 97.6%; viability at 250 µM [12]: 64.8%; LC50 [1]: > 500 µM |
| Cc1ccc(Cn2c(C(C)C)nc3ccccc32)cc1 [Compound 6586153] | 396 µM | 397 µM |  |  |  |  |  |  |  |  |  |  |  |
| Cc1nc2ccccc2n1Cc1ccccc1Cl [Compound 6707368] | 140 µM | 140 µM |  |  |  |  |  |  |  |  |  |  |  |

| Structure (SMILES) | LC50 [2] | LC50 [3] | viability at 1 µM [4] | viability at 2 µM [5] | viability at 3.9 µM [6] | viability at 15.6 µM [7] | viability at 31.3 µM [8] | viability at 62.5 µM [9] | viability at 125 µM [10] | viability at 250 µM [11] | viability at 500 µM | viability at 1000 µM | other results |
| --- | --- | --- | --- | --- | --- | --- | --- | --- | --- | --- | --- | --- | --- |
| Clc1ccc(Cn2cnc3ccccc32)c(Cl)c1 [Compound 6750659] | 42.5 µM | 42.4 µM |  |  |  | 100% | 89.8% | 5.8% | 9.3% | 0% |  |  |  |
| C=CCn1c(-c2ccc(N(C)C)cc2)nc2ccccc21 [Compound 6873298] | 37.7 µM | 37.7 µM |  |  |  |  |  |  |  |  |  |  |  |
| CCCn1c(COc2ccc(C)cc2)nc2ccccc21 [Compound 6944471] | > 500 µM | > 1000 µM |  |  |  | 98.6% | 100% | 100% | 100% | 100% | 85.8% | 91.4% | LC50 [1]: > 500 µM |
| Cc1ccc(CSCc2nc3ccccc3[nH]2)cc1 [Compound 7121781] | 444 µM | 444 µM |  |  |  | 95.9% | 80.9% | 99.7% | 98.6% | 96.2% | 34.8% | 15% |  |
| CCn1c(/C=C/c2ccc(F)cc2)nc2ccccc21 [Compound 7147614] | 96.4 µM | 96.4 µM |  |  |  |  |  |  |  |  |  |  |  |
| COc1ccccc1/C=C/c1nc2ccccc2[nH]1 [Compound 7148894] | 176 µM | 176 µM |  |  |  |  |  |  |  |  |  |  |  |
| Clc1ccc(OCCn2cnc3ccccc32)c(Cl)c1 [Compound 7221649] | 35 µM | 35 µM | 99.9% | 99.2% | 97.4% | 96.9% | 84.2% | 3.1% | 3.9% |  |  |  |  |
| Nc1nc2ccccc2n1Cc1ccc(Br)cc1 [Compound 7313068] | 62.7 µM | 62.7 µM |  |  |  |  |  |  |  |  |  |  |  |
| Cc1nc2ccccc2n1Cc1ccc(C(C)C)cc1 [Compound 7353551] | 116 µM | 116 µM |  |  |  |  |  |  |  |  |  |  |  |
| CCCOc1ccc(Cn2cnc3ccccc32)cc1 [Compound 7355741] | 71.9 µM | 72 µM |  |  |  | 99.8% | 100% | 82.7% | 5.7% | 0% |  |  |  |
| Cc1nc2ccccc2n1Cc1ccc(F)cc1 [Compound 7360886] | 239 µM | 239 µM |  |  |  |  |  |  |  |  |  |  |  |
| Cc1ccc(OCCn2cnc3ccccc32)c(C)c1 [Compound 7706808] | > 500 µM | > 1000 µM |  |  | 98.2% | 98.3% | 89.4% | 100% | 100% | 96.5% | 100% | 88.8% | viability at 1 µM [12]: 97.3%; viability at 2 µM [12]: 97.3%; LC50 [1]: > 500 µM |
| Cc1ccccc1OCCCCn1cnc2ccccc21 [Compound 7732524] | 64.9 µM | 64.9 µM |  |  |  | 100% | 99.5% | 54.4% | 4.4% | 5.1% | 2% | 1.8% | LC50 (144 h, read-out: C. elegans (Wild type) Development & Viability Assay LC50): 48.4 µM |
| Nc1nc2ccccc2n1CCCOc1ccccc1 [Compound 7915320] | 162 µM | 162 µM |  |  |  |  |  |  |  |  |  |  |  |
| Cc1ccccc1OCCCn1c(C)nc2ccccc21 [Compound 7916923] | 160 µM | 160 µM | 100% | 99.3% | 97.3% | 100% | 93.3% | 97.4% | 87.7% | 5.9% | 4.1% | 3.6% |  |
| Brc1ccccc1OCCCCn1cnc2ccccc21 [Compound 7924576] | 68.1 µM | 68.1 µM | 98.1% | 99.3% | 96% | 96.4% | 82% | 63.3% | 4.4% | 4.3% | 4.7% | 1.8% |  |
| FC(F)(F)c1cccc(OCCCCn2cnc3ccccc32)c1 [Compound 7925004] | 53.8 µM | 53.8 µM | 95.3% | 95% | 84.1% |  | 92.5% | 8.1% | 2% | 1.4% | 2% | 0.428% | viability at 15.6 µM [12]: 90.3% |

Read-outs that look alike come from different tables or passages of the source.
